In the antibiotic and cytotoxicity screens of Wong et al. (2023):
The list shows a part of the results.

system: HSkMC (human skeletal muscle cells); assay: cytotoxicity call (relative viability < 0.9); details: 10 µM

**Q.** For `C[C@@H]1CCCCO[C@@H](CN(C)C(=O)C2CCCCC2)[C@H](C)CN([C@@H](C)CO)C(=O)c2cc(NC(=O)c3ccncc3)ccc2O1`, which cytotoxicity call is on record?
**A.** The cytotoxicity call was “inactive”.

**Q.** How did the cytotoxicity call turn out when `C[C@@H]1CN([C@H](C)CO)C(=O)c2cccc(NC(=O)C3CC3)c2O[C@@H]1CN(C)S(=O)(=O)c1cccs1` was run?
**A.** The cytotoxicity call was “inactive”.

**Q.** For `O=C1c2ccccc2C(=O)C1c1ccc(Cl)cc1`, which cytotoxicity call is on record?
**A.** Its cytotoxicity call is “inactive”.

**Q.** With `C[C@@H]1CN([C@@H](C)CO)C(=O)c2cccc(NC(=O)Nc3ccccc3)c2O[C@@H]1CN(C)Cc1ccc(C(F)(F)F)cc1` as the molecule, how does the cytotoxicity call read?
**A.** Its cytotoxicity call is “inactive”.

**Q.** `Cl.N=C(N)NC(=N)NCCc1ccccc1` was tested. Which cytotoxicity call did it give?
**A.** The cytotoxicity call was “inactive”.

**Q.** For `CNC(=O)[C@@]12CCC3(CCN(C(=O)COC)CC3)[C@H]1CN(S(C)(=O)=O)C2`, which cytotoxicity call is on record?
**A.** Its cytotoxicity call is “inactive”.

**Q.** `C[C@H](CO)N1C[C@H](C)[C@H](CN(C)C(=O)NC2CCCCC2)OCCCC[C@H](C)Oc2ccc(NC(=O)Nc3ccc(F)cc3)cc2C1=O` was tested. Which cytotoxicity call did it give?
**A.** The cytotoxicity call was “inactive”.

**Q.** Which cytotoxicity call does the source give for `C[C@H]1CN([C@@H](C)CO)C(=O)c2cccc(NC(=O)c3nc4ccccc4s3)c2O[C@H]1CN(C)S(=O)(=O)c1cn(C)cn1` here?
**A.** The cytotoxicity call was “active”.

**Q.** Which cytotoxicity call does the source give for `Cc1noc(C)c1S(=O)(=O)Nc1ccc2c(c1)C(=O)N([C@H](C)CO)C[C@@H](C)[C@@H](CN(C)Cc1ccncc1)O2` here?
**A.** The cytotoxicity call was “inactive”.

**Q.** Which cytotoxicity call does the source give for `CC(C)NC(=O)Nc1ccc2c(c1)CC(=O)N([C@H](C)CO)C[C@H](C)[C@H](CN(C)S(=O)(=O)c1ccccc1)O2` here?
**A.** The cytotoxicity call was “inactive”.

**Q.** Which cytotoxicity call does the source give for `C[C@@H]1CCCCO[C@@H](CN(C)Cc2ccc3c(c2)OCO3)[C@H](C)CN([C@@H](C)CO)C(=O)c2cc(NC(=O)C3CCCCC3)ccc2O1` here?
**A.** The cytotoxicity call was “inactive”.

**Q.** How did the cytotoxicity call turn out when `Cc1ccc(S(=O)(=O)Nc2ccc3c(c2)C(=O)N([C@@H](C)CO)C[C@H](C)[C@@H](CN(C)Cc2ccc4c(c2)OCO4)OCCCC[C@H](C)O3)cc1` was run?
**A.** The cytotoxicity call was “inactive”.

**Q.** How did the cytotoxicity call turn out when `C[C@@H]1CN([C@@H](C)CO)C(=O)c2ccccc2-c2ccccc2CO[C@@H]1CN(C)C(=O)c1cc(Cl)cc(Cl)c1` was run?
**A.** Its cytotoxicity call is “inactive”.

**Q.** Which cytotoxicity call does the source give for `C[C@H](CO)N1C[C@H](C)[C@@H](CN(C)Cc2ccc(C(F)(F)F)cc2)OCCCC[C@H](C)Oc2ccc(NC(=O)CCCN(C)C)cc2C1=O` here?
**A.** The cytotoxicity call was “inactive”.

**Q.** For `O=C(C[C@H]1C[C@H]2c3cc(NC(=O)c4ccc5c(c4)OCO5)ccc3O[C@H]2[C@H](CO)O1)NCCN1CCCCC1`, which cytotoxicity call is on record?
**A.** The cytotoxicity call was “inactive”.

**Q.** For `CCCOc1ccc(S(=O)(=O)NCC[C@@H]2CCCN2C)cc1-c1nc2c(CCC)nn(C)c2c(=O)[nH]1`, which cytotoxicity call is on record?
**A.** Its cytotoxicity call is “inactive”.

**Q.** With `COc1ccc(S(=O)(=O)N(C)C[C@@H]2Oc3ncc(C#CCN(C)C)cc3C(=O)N([C@H](C)CO)C[C@@H]2C)cc1` as the molecule, how does the cytotoxicity call read?
**A.** Its cytotoxicity call is “inactive”.

**Q.** How did the cytotoxicity call turn out when `CO[C@H]1CN(C)C(=O)c2cc(NC(=O)NC3CCCCC3)ccc2OC[C@H](C)N(CCc2ccccc2)C[C@@H]1C` was run?
**A.** Its cytotoxicity call is “inactive”.

**Q.** With `C[C@H](N)C(=O)N[C@@]1(C(=O)O)C[C@@H](Sc2nnc[nH]2)[C@H]2[C@H](C(=O)O)[C@H]21` as the molecule, how does the cytotoxicity call read?
**A.** Its cytotoxicity call is “inactive”.

**Q.** For `C[C@H](CO)N1C[C@H](C)[C@@H](CN(C)C(=O)Nc2ccccc2)OCCCC[C@H](C)Oc2ccc(NS(=O)(=O)c3ccc(F)cc3)cc2C1=O`, which cytotoxicity call is on record?
**A.** The cytotoxicity call was “inactive”.

**Q.** Which cytotoxicity call does the source give for `COc1ccc(S(=O)(=O)N(C)C[C@@H]2Oc3ccc(NC(=O)Cn4cnnn4)cc3C(=O)N([C@H](C)CO)C[C@H]2C)cc1` here?
**A.** The cytotoxicity call was “inactive”.

**Q.** `CCOC(=O)Cn1cnc2ccccc2c1=O` was tested. Which cytotoxicity call did it give?
**A.** The cytotoxicity call was “inactive”.

**Q.** Which cytotoxicity call does the source give for `C[C@H](CO)N1C[C@H](C)[C@@H](CN(C)C(=O)C2CC2)OCc2cnnn2CCCC1=O` here?
**A.** The cytotoxicity call was “inactive”.

**Q.** With `C[C@@H]1CCCCO[C@@H](CN(C)S(C)(=O)=O)[C@H](C)CN([C@@H](C)CO)C(=O)c2cc(NS(=O)(=O)c3ccccc3)ccc2O1` as the molecule, how does the cytotoxicity call read?
**A.** Its cytotoxicity call is “inactive”.

**Q.** How did the cytotoxicity call turn out when `C[C@@H]1CN([C@H](C)CO)C(=O)Cc2cc(NC(=O)Nc3ccccc3)ccc2O[C@H]1CN(C)Cc1ccc(-c2ccccc2)cc1` was run?
**A.** The cytotoxicity call was “inactive”.

**Q.** Which cytotoxicity call does the source give for `C[C@H]1CCCCO[C@H](CN(C)S(=O)(=O)c2cn(C)cn2)[C@@H](C)CN([C@@H](C)CO)C(=O)c2cc(NC(=O)Nc3ccc(C(F)(F)F)cc3)ccc2O1` here?
**A.** Its cytotoxicity call is “inactive”.

**Q.** For `Cc1ccc(S(=O)(=O)Nc2ccc3c(c2)CC(=O)N([C@@H](C)CO)C[C@H](C)[C@@H](CN(C)Cc2ccc(-c4ccccc4)cc2)O3)cc1`, which cytotoxicity call is on record?
**A.** Its cytotoxicity call is “active”.

**Q.** Which cytotoxicity call does the source give for `C[C@@H]1CCCCO[C@H](CN(C)CC2CC2)[C@H](C)CN([C@@H](C)CO)C(=O)c2cc(NC(=O)Cc3ccccc3)ccc2O1` here?
**A.** The cytotoxicity call was “inactive”.

**Q.** With `Cc1ccc(S(=O)(=O)N(C)C[C@H]2Oc3ccc(N(C)C)cc3CC(=O)N([C@@H](C)CO)C[C@H]2C)cc1` as the molecule, how does the cytotoxicity call read?
**A.** The cytotoxicity call was “inactive”.
